# Assay results as given in the supplement of paper PMC3334620.
# Whole data set: some 33,000 sequences, median “E-score (-0.5 to 0.5)” near -0.041, cut for the highest 2% near 0.37. The list shows a part of the results.
# Biological target: T1, Ecm22 (UniProt Q05958)
# T1 sequence: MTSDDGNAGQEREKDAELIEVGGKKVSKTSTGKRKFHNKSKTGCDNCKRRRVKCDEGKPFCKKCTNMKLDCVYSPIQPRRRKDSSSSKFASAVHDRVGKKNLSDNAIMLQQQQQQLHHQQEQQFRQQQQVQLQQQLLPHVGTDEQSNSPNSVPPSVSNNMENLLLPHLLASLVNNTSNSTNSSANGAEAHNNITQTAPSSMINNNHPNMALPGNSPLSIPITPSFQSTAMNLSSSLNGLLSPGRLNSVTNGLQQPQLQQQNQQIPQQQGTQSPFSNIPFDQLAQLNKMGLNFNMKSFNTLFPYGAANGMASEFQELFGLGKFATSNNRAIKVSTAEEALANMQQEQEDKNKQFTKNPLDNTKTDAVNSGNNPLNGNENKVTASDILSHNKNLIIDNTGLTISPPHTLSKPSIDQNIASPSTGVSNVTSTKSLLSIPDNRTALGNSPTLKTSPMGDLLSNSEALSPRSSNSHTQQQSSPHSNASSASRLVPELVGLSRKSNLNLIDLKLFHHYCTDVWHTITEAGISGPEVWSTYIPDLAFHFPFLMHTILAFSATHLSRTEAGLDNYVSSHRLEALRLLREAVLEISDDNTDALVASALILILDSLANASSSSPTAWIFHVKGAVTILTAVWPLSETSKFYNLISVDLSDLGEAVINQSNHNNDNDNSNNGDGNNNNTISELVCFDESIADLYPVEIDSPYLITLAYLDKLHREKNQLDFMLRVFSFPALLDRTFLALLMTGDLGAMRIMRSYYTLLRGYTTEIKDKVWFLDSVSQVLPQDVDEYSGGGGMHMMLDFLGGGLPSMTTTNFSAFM
# Experiment: PBM E-score (8-mer binding enrichment) (E-score (-0.5 to 0.5)); higher = stronger / more preferred TF binding; most listed sequences are background and not binding sites
# Conditions: protein concentration: 200 nM; construct: GST-full length
# Procedure: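 Universal 'all 10-mer' protein binding microarrays (Agilent AMADID 015681) probed with GST-tagged S. cerevisiae TFs (full-length or DBD) made by in vitro transcription/translation (PURExpress), about 100-200 nM. Bound TF was detected with fluorescent anti-GST. Each ungapped 8-mer (which stands for itself and its reverse complement) is scored by the PBM enrichment score (E-score), a modified Wilcoxon-Mann-Whitney statistic from -0.5 to +0.5, computed with the Universal PBM Analysis Suite. Scale: above 0.35 generally sequence-specific binding.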
row,Sequence,PBM E-score
1,CGACACCA,0.148
2,CAGCGCCA,-0.179
3,GTAGCGAA,0.287
4,CAATTATC,0.0964
5,ATCCCCCA,-0.338
6,GAACGCCC,0.0215
7,GCCTAAGC,-0.232
8,ACTGGAAG,-0.211
9,AATTTGGC,-0.0443
10,ACGAGCGC,0.327
11,ATGTGATA,0.045
12,AATTACGT,0.0683
13,AAGACGGG,-0.114
14,AGACGGAC,-0.202
15,GACCGTAA,0.283
16,CAGCAGTA,-0.132
17,GCATTACC,-0.17
18,CAGCTCTC,-0.204
19,TAGGACTA,-0.25
20,AAATCTTG,-0.173
21,AACGTCGA,0.178
22,CAAACGTG,0.054
23,TAGCATAA,-0.00664
24,CACAATAG,-0.0503
25,GGCCGGAA,-0.17

row,Sequence,PBM E-score
1,ACGGTAGC,-0.00152
2,CTCGCTTC,0.227
3,ACATATGG,-0.024
4,CTACAACC,0.0766
5,GGCGCAGA,-0.15
6,ATGATGGG,-0.313
7,GTTTGCCA,-0.0654
8,AAACCCAT,-0.00776
9,ACGAGACG,0.394
10,AACCGTGT,-0.0312
11,AGTGCCGG,-0.131
12,ATAGCAAG,-0.182
13,AGCTTGAT,-0.191
14,CACTAAGC,-0.0471
15,GCGTCAAC,-0.0774
16,GTTAGTCA,0.0344
17,ACTGCACC,-0.121
18,CACGCAAG,-0.131
19,CGGGGACA,-0.131
20,CATTGAGC,-0.228
21,TAGTCAAA,-0.0457
22,TTACGGAA,0.266
23,CGAAGAGC,0.181
24,ACGGTCCT,-0.195
25,CGATCTTA,0.14

row,Sequence,PBM E-score
1,CTTAAGAC,-0.129
2,ATGCGCTA,-0.0545
3,CCGCGTAA,0.08
4,CTGAGGCA,-0.207
5,CAACTCAA,-0.131
6,CGTAAAAG,0.367
7,CGATGCGC,0.164
8,AACGATAT,0.408
9,AAAATCCG,0.0356
10,ATACTATA,0.123
11,AAAATCGA,0.0644
12,GCGTCTGA,-0.112
13,CGGAACCG,0.21
14,CGTAACCA,0.149
15,CCTTCCCC,-0.0759
16,ACACCAGA,-0.0212
17,CCAAGGGC,-0.28
18,AAACGTTA,0.18
19,AATGGGAT,-0.207
20,CACGAGAG,0.0712
21,GACCTGAA,-0.172
22,CTAATCTC,0.127
23,TCAGCTAA,0.0187
24,CGCATGTC,0.065
25,GATACATA,0.107

row,Sequence,PBM E-score
1,AAAGTGGG,0.0233
2,AATTATAT,0.263
3,CGCGCGAG,0.157
4,AGAACAAA,0.0892
5,CAGCTAGC,-0.182
6,CGATCTCC,0.0257
7,TTTAGAAA,0.0255
8,CGGTTTAC,0.239
9,GCTCTATA,-0.109
10,AGTCCTGA,-0.298
11,AATGGACT,-0.109
12,CTGACTGA,-0.189
13,ACCTCGAC,-0.0677
14,CTAGGGTA,-0.252
15,GTTCCAAA,0.147
16,ATTCTATC,-0.0465
17,AGGACACC,-0.0391
18,AATAGCAG,-0.266
19,AATCGGTG,-0.0662
20,GATCATGC,-0.205
21,AGGTGGGA,-0.121
22,AATAAACA,0.0258
23,GGCATATA,0.216
24,ACCGCTGA,0.141
25,CCAAACGC,0.177

row,Sequence,PBM E-score
1,TGGGTAAA,0.0399
2,AATGGGAG,-0.153
3,ACGTTGTG,-0.026
4,CGGCGACA,-0.0728
5,ACGTCTCC,0.0834
6,GAGAAATC,0.147
7,GACTCCGA,-0.237
8,GCCGACAA,0.0252
9,ATCTTTGA,-0.00074
10,AAGACTAG,-0.209
11,GTCTTGAA,0.0447
12,CTTCAGCA,-0.0761
13,AAGCCCGT,0.138
14,TAAAAACA,0.00419
15,GCACAGCC,-0.0877
16,ACCCGATG,0.059
17,ACACCAAA,0.0554
18,GCACGTGC,-0.0189
19,GCTGGAAC,0.0629
20,CGGATTCC,0.102
21,AGGTAACC,0.11
22,CAGAGGTC,-0.235
23,GAGGGCGA,-0.28
24,CTGATTCC,-0.298
25,AAGCACGA,0.104

row,Sequence,PBM E-score
1,CACGCCAC,-0.186
2,CGTCACGC,0.0511
3,AAAACAAA,0.09
4,GCATTTAC,-0.0379
5,AATAGTTG,-0.116
6,CCCGATCC,-0.106
7,AGTTGCCC,-0.165
8,AGCCCACC,-0.23
9,GGGAAAAA,-0.0103
10,ACATTGAT,0.0861
11,CGAGGAGA,0.0825
12,ATCTGTGC,-0.189
13,ACAGCGCG,-0.00963
14,AAGGCAAG,-0.235
15,AGGAAGTC,-0.32
16,AAGTCAGT,-0.0263
17,AGTAGATA,0.152
18,GCCCGACC,-0.268
19,AGTAATGA,-0.0982
20,CGCGCCTC,0.00638
21,AAATGGCG,-0.0122
22,CTGGATCA,-0.195
23,CCTACGTA,0.218
24,CGAATTCA,0.122
25,TAGAACTA,-0.0234

row,Sequence,PBM E-score
1,CGGCAATA,0.121
2,AGCCAGGC,-0.0189
3,ATGAGGCG,-0.186
4,ATCGGTTG,0.188
5,CTGGGGGC,-0.144
6,ACGATAGT,0.278
7,TGATCACA,-0.0891
8,GGAGTTCA,-0.124
9,AGCAATGA,-0.187
10,AGCAACGG,0.203
11,ACTCACGA,0.125
12,ATTTTTAG,-0.195
13,CACAATCC,-0.0104
14,AAGGAGCA,-0.186
15,CTCGACAG,-0.066
16,CTGGTGTC,0.0518
17,TCGTCGCA,0.248
18,AACGAACT,0.354
19,CCAAACTA,-0.0739
20,CGGAAAGA,0.0112
21,GAGCTGCC,-0.109
22,CCATAACC,0.0085
